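Exposure lasted 48 hours, with cells grown in 96-well plates and compounds tested at five concentrations. GI50 = concentration required for 50% inhibition of growth.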 Certain results were filed several times, with different values. The list is limited to them. An entry can have further records. Records of one sample usually come from different ranges of test concentrations, which the source does not state; some values may only mark the edge of a range.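 TGI: concentration producing complete growth inhibition.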
What was measured:
Experiment in all cases: inhibition of tumour cell growth, NCI panel, 48 h
786-0 renal = system: 786-0 renal
A498 renal = system: A498 renal
A549 NSCLC = system: A549 NSCLC
ACHN renal = system: ACHN renal
CCRF-CEM leukemia = system: CCRF-CEM leukemia
COLO 205 colon = system: COLO 205 colon
HCT-116 colon = system: HCT-116 colon
HCT-15 colon = system: HCT-15 colon
HOP-62 NSCLC = system: HOP-62 NSCLC
HOP-92 NSCLC = system: HOP-92 NSCLC
HT29 colon = system: HT29 colon
IGROV1 ovarian = system: IGROV1 ovarian
KM12 colon = system: KM12 colon
M14 melanoma = system: M14 melanoma
MALME-3M melanoma = system: MALME-3M melanoma
MOLT-4 leukemia = system: MOLT-4 leukemia
NCI-H23 lung = system: NCI-H23 lung
NCI-H460 lung = system: NCI-H460 lung
NCI-H522 lung = system: NCI-H522 lung
OVCAR-3 ovarian = system: OVCAR-3 ovarian
OVCAR-4 ovarian = system: OVCAR-4 ovarian
OVCAR-5 ovarian = system: OVCAR-5 ovarian
OVCAR-8 ovarian = system: OVCAR-8 ovarian
RPMI-8226 leukemia = system: RPMI-8226 leukemia
RXF 393 renal = system: RXF 393 renal
SF-268 CNS = system: SF-268 CNS
SF-295 CNS = system: SF-295 CNS
SF-539 CNS = system: SF-539 CNS
SK-MEL-2 melanoma = system: SK-MEL-2 melanoma
SK-MEL-28 melanoma = system: SK-MEL-28 melanoma
SK-MEL-5 melanoma = system: SK-MEL-5 melanoma
SK-OV-3 ovarian = system: SK-OV-3 ovarian
SN12C renal = system: SN12C renal
SNB-19 CNS = system: SNB-19 CNS
SNB-75 CNS = system: SNB-75 CNS
SR leukemia = system: SR leukemia
TK-10 renal = system: TK-10 renal
U251 CNS = system: U251 CNS
UACC-257 melanoma = system: UACC-257 melanoma
UO-31 renal = system: UO-31 renal
BT-549 breast = system: BT-549 breast
NCI-H226 lung = system: NCI-H226 lung
NCI/ADR-RES ovarian = system: NCI/ADR-RES ovarian
HS 578T breast = system: HS 578T breast
SW-620 colon = system: SW-620 colon
DU-145 prostate = system: DU-145 prostate

With `O=C1/C(=C/c2ccc(Cl)c(Cl)c2)CN(C(=O)CCN2CCOCC2)C/C1=C\c1ccc(Cl)c(Cl)c1` the GI50 (786-0 renal) was 2.37 nM, 1.5 µM, 194 nM, the TGI (786-0 renal) was 4.66 nM, 2.87 µM, 398 nM and the GI50 (A498 renal) was 46.1 nM and 2.55 µM. The TGI (A498 renal) was 91.5 nM and 6.52 µM, the GI50 (A549 NSCLC) was 13.5 nM, 2.59 µM, 2.27 µM and the TGI (A549 NSCLC) was 63.9 nM, 6.38 µM, 5.27 µM. For the same molecule, the GI50 (ACHN renal) was 22.8 nM, 1.78 µM, 1.48 µM, the TGI (ACHN renal) was 59.9 nM, 3.26 µM, 3.18 µM and the GI50 (CCRF-CEM leukemia) was 4.2 nM, 272 nM, 287 nM. The TGI (CCRF-CEM leukemia) was > 10 µM, 727 nM, 658 nM, the GI50 (COLO 205 colon) was 3.77 nM, 1.83 µM, 1.41 µM and the TGI (COLO 205 colon) was 13.9 nM, 3.35 µM, 3.79 µM. The GI50 (HCT-116 colon) was 2.62 nM, 240 nM, 358 nM, the TGI (HCT-116 colon) was 10.4 nM, 746 nM, 1.07 µM and the GI50 (HCT-15 colon) was 2.49 nM, 559 nM, 276 nM. For the same molecule, the TGI (HCT-15 colon) was 9.93 nM, 1.85 µM, 758 nM, the GI50 (HOP-62 NSCLC) was 9.48 nM, 3.13 µM, 2.26 µM and the TGI (HOP-62 NSCLC) was 33.5 nM, 7.62 µM, 4.86 µM. For the same molecule, the GI50 (HOP-92 NSCLC) was 71.7 nM, 2.34 µM, 1.78 µM, the TGI (HOP-92 NSCLC) was 294 nM, 5.12 µM, 4.19 µM and the GI50 (HT29 colon) was 5.59 nM and 303 nM. For the same molecule, the TGI (HT29 colon) was 29.6 nM and 1.04 µM, the GI50 (IGROV1 ovarian) was 6.47 nM, 2.13 µM, 1.29 µM and the TGI (IGROV1 ovarian) was 20.9 nM, 4.55 µM, 3.02 µM. For the same molecule, the GI50 (KM12 colon) was 3.06 nM, 342 nM, 165 nM, the GI50 (M14 melanoma) was 14.8 nM, 1.8 µM, 1.83 µM and the TGI (M14 melanoma) was 32.6 nM, 3.21 µM, 3.45 µM. For the same molecule, the GI50 (MALME-3M melanoma) was 32.7 nM, 2.11 µM, 2.18 µM, the TGI (MALME-3M melanoma) was 89.2 nM, 4.04 µM, 4.09 µM and the TGI (MOLT-4 leukemia) was 26.4 nM and 528 nM. For the same molecule, the GI50 (NCI-H23 lung) was 12.6 nM, 1.99 µM, 2.55 µM, the TGI (NCI-H23 lung) was 75 nM, 4.25 µM, 5.91 µM and the GI50 (NCI-H460 lung) was 13.4 nM, 2.1 µM, 1.78 µM. The TGI (NCI-H460 lung) was 40 nM, 4.28 µM, 4.06 µM, the GI50 (NCI-H522 lung) was 5.55 nM, 1.43 µM, 238 nM and the TGI (NCI-H522 lung) was 19.4 nM, 2.78 µM, 674 nM. For the same molecule, the TGI (OVCAR-3 ovarian) was 17.2 nM and 2.38 µM, the TGI (OVCAR-4 ovarian) was 23.9 nM and 3.58 µM and the GI50 (OVCAR-5 ovarian) was 23.9 nM, 1.81 µM, 2.08 µM. The TGI (OVCAR-5 ovarian) was 65 nM, 3.38 µM, 3.76 µM, the GI50 (OVCAR-8 ovarian) was 3.3 nM, 204 nM, 2.7 µM and the TGI (OVCAR-8 ovarian) was 9.04 nM, 437 nM, 6.6 µM. For the same molecule, the GI50 (RPMI-8226 leukemia) was 1.48 nM, 193 nM, 128 nM, the TGI (RPMI-8226 leukemia) was 9.15 nM, 509 nM, 429 nM and the GI50 (RXF 393 renal) was 2.72 nM, 1.92 µM, 1.32 µM. The TGI (RXF 393 renal) was 7.21 nM, 3.43 µM, 2.67 µM, the GI50 (SF-268 CNS) was 4.74 nM, 1.38 µM, 1.19 µM and the TGI (SF-268 CNS) was 21.6 nM, 4.5 µM, 2.92 µM. The GI50 (SF-295 CNS) was 10.3 nM, 2.32 µM, 527 nM, the TGI (SF-295 CNS) was 43.4 nM, 5.36 µM, 1.97 µM and the GI50 (SF-539 CNS) was 12.6 nM, 1.41 µM, 509 nM. For the same molecule, the TGI (SF-539 CNS) was 30.8 nM, 2.96 µM, 1.89 µM, the GI50 (SK-MEL-2 melanoma) was 14.5 nM, 2.13 µM, 1.81 µM and the TGI (SK-MEL-2 melanoma) was 39.9 nM, 4.91 µM, 3.61 µM. The GI50 (SK-MEL-28 melanoma) was 23.7 nM, 2.11 µM, 1.83 µM, the TGI (SK-MEL-28 melanoma) was 58.1 nM, 4.12 µM, 3.72 µM and the GI50 (SK-MEL-5 melanoma) was 19.6 nM, 2.67 µM, 1.85 µM. The TGI (SK-MEL-5 melanoma) was 45.8 nM, 4.25 µM, 3.49 µM, the GI50 (SK-OV-3 ovarian) was 33.9 nM, 2.26 µM, 2.55 µM and the TGI (SK-OV-3 ovarian) was 95.6 nM, 4.43 µM, 6.35 µM. For the same molecule, the GI50 (SN12C renal) was 1.91 nM, 1.6 µM, 449 nM, the TGI (SN12C renal) was 3.94 nM, 2.97 µM, 1.69 µM and the GI50 (SNB-19 CNS) was 1.8 µM and 169 nM. The TGI (SNB-19 CNS) was > 10 µM, 4.04 µM, 420 nM, the GI50 (SNB-75 CNS) was 113 nM, 2.18 µM, 2.89 µM and the TGI (SNB-75 CNS) was 240 nM, 5.42 µM, 7.83 µM. For the same molecule, the GI50 (SR leukemia) was 5.11 nM and 111 nM, the TGI (SR leukemia) was 9.89 nM and 401 nM and the GI50 (TK-10 renal) was 31.9 nM and 2.78 µM. The TGI (TK-10 renal) was 92.4 nM and 6.69 µM, the GI50 (U251 CNS) was 23.2 nM, 784 nM, 411 nM and the TGI (U251 CNS) was 71.7 nM, 2.05 µM, 1.4 µM. For the same molecule, the GI50 (UACC-257 melanoma) was 31.8 nM, 2.26 µM, 2.24 µM, the TGI (UACC-257 melanoma) was 97.6 nM, 5.32 µM, 4.21 µM and the GI50 (UO-31 renal) was 17.3 nM, 1.82 µM, 1.77 µM. For the same molecule, the TGI (UO-31 renal) was 33.5 nM, 3.38 µM, 3.26 µM.
In the case of `CCCCCCCCCC[C@@H](O)[C@H]1CC[C@@H]([C@H]2CC[C@H]([C@H](O)CCCCCCCCCC[C@@H]3CC(CC(C)=O)C(=O)O3)O2)O1` (stereo partly drawn), the TGI (ACHN renal) is reported as 8.96 µM and > 100 µM, the TGI (BT-549 breast) is reported as 9.36 µM and > 100 µM and the TGI (NCI-H226 lung) is reported as 4.24 µM and 45.1 µM. For the same molecule, the TGI (NCI/ADR-RES ovarian) was 3.24 µM and > 100 µM, the TGI (SN12C renal) was 7.39 µM and 76.3 µM and the TGI (SNB-75 CNS) was 7.8 µM and > 100 µM.
`Nc1ncnc2c(C3OC(CO)C(O)C3O)c[nH]c12` (stereo not drawn) was tested, and the TGI (ACHN renal) was 268 nM and < 11.6 nM, the TGI (HS 578T breast) was 33.8 nM and 4.34 µM and the TGI (SK-MEL-5 melanoma) was 29.6 nM and 457 nM. The TGI (SK-OV-3 ovarian) was 6.08 nM and > 100 µM, the TGI (SW-620 colon) was 393 nM and 4.89 µM and the TGI (U251 CNS) was 693 nM and > 32.8 µM.
With `C[C@H]1CC(=O)[C@@]2(O)C#C/C=C\C#C[C@@H]3Nc4c(cc(O)c5c4C(=O)c4ccccc4C5=O)[C@]24O[C@]314` the TGI (CCRF-CEM leukemia) was 18.5 nM and 267 nM, the TGI (DU-145 prostate) was 15.1 nM and 519 nM and the TGI (NCI-H226 lung) was 365 nM and 5.71 nM. For the same molecule, the TGI (NCI-H460 lung) was 12.7 nM and 547 nM and the TGI (TK-10 renal) was 318 nM and > 25 µM.

Reference: PubChem BioAssay (NCI)
